# The supplement of paper PMC8728848
# Some of the results follow.
# B1: chitinase 3-like protein 2 (Homo sapiens) (protein)
# chain: YKLVCYFTQWSQDRQEPGKFTPENIDPFLCSHLIYSFASIENNKVIIKDKSEVMLYQTINSLKTKNPKLKILLSIGGYLFGSKGFHPMVDSSTSRLEFINSIILFLRNHNFDGLDVSWIYPDQKENTHFTVLIHELAEAFQKDFTKSTKERLLLTAGVSAGRQMIDNSYQVEKLAKDLDFINLLSFDFHGSWEKPLITGHNSPLSKGWQDRGPSSYYNVEYAVGYWIHKGMPSEKVVMGIPTYGHSFTLASAETTVGAPASGPGAAGPITESSGFLAYYEICQFLKGAKITRLQDQQVPYAVKGNQWVGYDDVKSMETKVQFLKNLNLGGAMIWSIDMDDFTGKSCNQGPYPLVQAVKRSLGSL
# Tests used:
# Test in all cases: glycan array binding signal (z-score within array); higher = stronger binding
# Conditions in all cases: glycan notation: IUPAC condensed, linker removed
# [1] = target: Neu5Ac(a2-8)Neu5Ac(a2-8)Neu5Ac(a2-8)Neu5Ac(a2-3)[GalNAc(b1-4)]Gal(b1-4)Glc
# In short: (§1)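 The binding signal is a Z-score computed within each array. Data were drawn from 3228 arrays in the Consortium for Functional Glycomics database, restricted to those with a known protein sequence. Scores were averaged over arrays of the same protein sequence at different concentrations or buffers, and over linkers, and negative values can be taken as non-binding.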
# [2] = target: Neu5Ac9Ac(a2-6)Gal(b1-4)GlcNAc
# In short: as §1
# [3] = target: Neu5Gc(a2-3)Gal(b1-3)GlcNAc
# In short: as §1
# [4] = target: Neu5Gc(a2-3)Gal(b1-3)[Fuc(a1-4)]GlcNAc
# In short: as §1
# Neu5Gc(a2-3)Gal(b1-4)Glc = target: Neu5Gc(a2-3)Gal(b1-4)Glc
# In short: as §1
# [5] = target: Neu5Gc(a2-3)Gal(b1-4)GlcNAc
# In short: as §1
# [6] = target: Neu5Gc(a2-3)Gal(b1-4)[Fuc(a1-4)]GlcNAc
# In short: as §1
# [7] = target: Neu5Gc(a2-6)Gal(b1-4)GlcNAc
# In short: as §1
# Neu5Gc(a2-6)GalNAc = target: Neu5Gc(a2-6)GalNAc
# In short: as §1
binder,measurement,setting,value
B1,glycan array binding signal (z-score),[1],1.51
same,glycan array binding signal (z-score),[2],-0.229
same,glycan array binding signal (z-score),[3],-0.254
same,glycan array binding signal (z-score),[4],-0.268
same,glycan array binding signal (z-score),Neu5Gc(a2-3)Gal(b1-4)Glc,-0.258
same,glycan array binding signal (z-score),[5],0.093
same,glycan array binding signal (z-score),[6],-0.279
same,glycan array binding signal (z-score),[7],0.002
same,glycan array binding signal (z-score),Neu5Gc(a2-6)GalNAc,-0.217
